Source: the supplement of paper PMC9446081
Among all 39,000 compounds or so, about 220 (0.56%) showed activity. The list shows a part of the results.

System: Escherichia coli K-12 BW25113
Assay: relative growth (OD600 normalised to plate interquartile mean) (fraction); higher = less growth inhibition, active = 0.2 or less
Conditions: 50 µM; LB; incubation time: overnight (16-24 h)
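Note: static incubation at 37 °C against the wild-type strain, values averaged over two biological replicates.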

| Structure (SMILES) | relative growth |
| --- | --- |
| C[C@@H]1CN([C@H](C)CO)C(=O)c2cc(NC(=O)Nc3cccc4ccccc34)ccc2O[C@@H]1CN(C)C(=O)Nc1ccc(C(F)(F)F)cc1 | inactive: 1 |
| CC1=CCCC(C)=CCC(C)(C)C=CC1 [HUMULENE (alpha)] | inactive: 1.1 |
| C[C@@H]1CN([C@@H](C)CO)C(=O)Cc2cc(NC(=O)Nc3ccccc3)ccc2O[C@@H]1CN(C)S(=O)(=O)c1cn(C)cn1 | inactive: 0.997 |
| CC=Cc1ccc2n(c1=O)C[C@@H]1[C@@H](CO)[C@H](C(=O)NCCC)[C@H]2N1S(=O)(=O)c1cn(C)cn1 | inactive: 0.989 |
| CC(C)NC(=O)Nc1ccc2c(c1)C(=O)N([C@@H](C)CO)C[C@H](C)[C@H](CN(C)C(=O)Nc1ccccc1)OCCCC[C@@H](C)O2 | inactive: 0.976 |
| Fc1ccc(C2=NNC3=NCCN3C2)cc1F | inactive: 0.946 |
| C[C@H]1CCCCO[C@@H](CN(C)C(=O)Nc2ccc3c(c2)OCO3)[C@@H](C)CN([C@@H](C)CO)C(=O)c2cc(NC(=O)Cc3ccccc3)ccc2O1 | inactive: 0.995 |
| C[C@H]1CN([C@@H](C)CO)C(=O)c2cc(NS(C)(=O)=O)ccc2O[C@@H]1CN(C)C(=O)Nc1ccc(F)cc1 | inactive: 0.993 |
| C[C@@H]1CCCCO[C@@H](CN(C)C(=O)Nc2cccc3ccccc23)[C@H](C)CN([C@H](C)CO)C(=O)c2cc(NC(=O)CCCN(C)C)ccc2O1 | inactive: 1.01 |
| C[C@@H]1CN([C@@H](C)CO)S(=O)(=O)c2ccc(C#CC3CC3)cc2O[C@H]1CN(C)C(=O)C1CCCCC1 | inactive: 0.92 |
| OC[C@@H]1CN(CCN2CCOCC2)C[C@H](n2cnc3c(NC4CCC4)ncnc32)O1 | inactive: 0.936 |
| C[C@@H]1CN([C@@H](C)CO)C(=O)c2cc(C#CC3(O)CCCC3)cnc2O[C@H]1CN(C)C(=O)CN(C)C | inactive: 1.01 |
| C[C@H](CO)N1C[C@H](C)[C@@H](CN(C)S(=O)(=O)c2cccs2)Oc2ccc(NC(=O)Cn3cnnn3)cc2C1=O | inactive: 0.99 |
| CC(C)NC(=O)N[C@@H]1CC[C@@H](CCN)O[C@H]1CO | inactive: 0.989 |
| C[C@@H]1CN([C@H](C)CO)C(=O)c2cc(NC(=O)Nc3cccc4ccccc34)ccc2O[C@@H](C)CCCCO[C@@H]1CN(C)S(=O)(=O)c1ccccc1 | inactive: 1.17 |
| CC(C)(CO)C(O)C(=O)NCCC(=O)[O-].[Na+] (stereo not given) [PANTOTHENIC ACID(d) Na salt] | inactive: 1.03 |
| CN1CCN(C(=O)C[C@@H]2CC[C@H]3[C@@H](COc4ccc(NC(=O)c5ccc(F)c(F)c5)cc4C(=O)N3C)O2)CC1 | inactive: 1 |
| COc1ccc(S(=O)(=O)Nc2cccc3c2O[C@H](CN(C)S(=O)(=O)c2ccccc2)[C@H](C)CN([C@@H](C)CO)C3=O)cc1 | inactive: 1.05 |
| CO[C@@H]1CN(C)C(=O)c2ccc(NS(C)(=O)=O)cc2OC[C@H](C)N(S(C)(=O)=O)C[C@H]1C | inactive: 0.991 |
| C[C@@H]1CN([C@H](C)CO)C(=O)c2cc(NC(=O)CCC(F)(F)F)ccc2O[C@@H](C)CCCCO[C@H]1CN(C)Cc1ccc(C(F)(F)F)cc1 | inactive: 1.02 |

| Structure (SMILES) | relative growth |
| --- | --- |
| O=C(C[C@@H]1CC[C@H](NC(=O)c2cccnc2)[C@@H](CO)O1)NCCN1CCCCC1 | inactive: 0.971 |
| C[C@@H]1CN([C@H](C)CO)C(=O)c2cc(NC(=O)C3CC3)ccc2O[C@H]1CN(C)S(=O)(=O)c1ccccc1 | inactive: 1.01 |
| Cc1ccc(S(=O)(=O)Nc2ccc3c(c2)CC(=O)N([C@@H](C)CO)C[C@H](C)[C@H](CN(C)S(=O)(=O)c2cn(C)cn2)O3)cc1 | inactive: 0.998 |
| CCCC#Cc1ccc2c(c1)O[C@@H](CN(C)Cc1ccc3c(c1)OCO3)[C@H](C)CN([C@H](C)CO)S2(=O)=O | inactive: 1.05 |
| CN(C)S(=O)(=O)N1CCO[C@@H]2CN(c3ncc(F)cn3)C[C@@H]21 | inactive: 0.981 |
| CCCC(=O)Nc1ccc2c(c1)C(=O)N(C)C[C@H](OC)[C@@H](C)CN(Cc1ccc(-c3ccccn3)cc1)[C@@H](C)CO2 | inactive: 0.996 |
| CC(C)C#Cc1ccc2c(c1)O[C@H](CN(C)C(=O)Cc1ccccn1)[C@@H](C)CN([C@@H](C)CO)S2(=O)=O | inactive: 0.997 |
| C[C@H]1CN([C@@H](C)CO)C(=O)c2cc(C#CCN(C)C)cnc2O[C@@H]1CN(C)C(=O)CN1CCOCC1 | inactive: 0.993 |
| S=C1NCNCN1 | inactive: 1 |
| C[C@H](CO)N1C[C@H](C)[C@H](CN(C)S(=O)(=O)c2ccccc2F)Oc2ncc(C#Cc3ccccc3)cc2C1=O | inactive: 1.01 |
| CC(C)NC(=O)Nc1ccc2c(c1)C(=O)N([C@H](C)CO)C[C@@H](C)[C@H](CN(C)S(=O)(=O)c1cn(C)cn1)OCCCC[C@@H](C)O2 | inactive: 1.02 |
| COc1ccc(S(=O)(=O)N(C)C[C@@H]2Oc3ccc(NS(=O)(=O)c4c(C)noc4C)cc3C(=O)N([C@H](C)CO)C[C@H]2C)cc1 | inactive: 0.977 |
| Cl.O=C(Nc1ccccc1)OCC(CN1CCCCC1)OC(=O)Nc1ccccc1 (stereo not given) | inactive: 0.934 |
| C[C@@H]1CN([C@@H](C)CO)C(=O)c2cc(NC(=O)Nc3cccc4ccccc34)ccc2O[C@@H](C)CCCCO[C@H]1CN(C)Cc1ccccc1 | inactive: 1.02 |
| C[C@H]1CN([C@@H](C)CO)C(=O)CCCn2nncc2CO[C@@H]1CN(C)C(=O)Nc1cccc2ccccc12 | inactive: 1 |
| c1cn2c(n1)NCC2 | inactive: 1 |
| C[C@@H]1CN([C@H](C)CO)C(=O)c2cc(NC(=O)CCCN(C)C)ccc2O[C@@H]1CN(C)Cc1ccccc1 | inactive: 0.984 |
| C[C@@H]1CN([C@H](C)CO)C(=O)Cc2cc(NC(=O)Nc3ccc(C(F)(F)F)cc3)ccc2O[C@H]1CN(C)C(=O)Nc1ccc(F)cc1 | inactive: 1.01 |
| CC(C)NC(=O)N(C)C[C@H]1Oc2ncc(-c3ccc(C(=O)N(C)C)cc3)cc2C(=O)N([C@H](C)CO)C[C@H]1C | inactive: 0.979 |
| O=C(C[C@@H]1CC[C@H]2[C@@H](COC[C@@H](O)CN2S(=O)(=O)c2ccccc2)O1)NCc1ccc(-c2ccccc2)cc1 | inactive: 0.946 |
